Results taken from PubChem BioAssay AID624202 (National Center for Advancing Translational Sciences (NCATS), 2012).
In all, about 380,000 compounds went through this assay and about 4,000 (1.1%) were called active. The shares of active, inactive and inconclusive entries below differ from those in the screen. Calls follow the shape of the dose curve; as a rule, active = well fitted activation curve with a large enough effect; inconclusive = small, poorly fitted or top-dose-only effect; inactive = no such curve, though single readings can be large or run the other way. Where the call is inconclusive, the potency comes from a doubtful curve fit.

Assay: qHTS Assay to Identify Small Molecule Activators of BRCA1 Expression; also: nearly all actives have a fitted effect of over 80% in size
Details: MCF7-BRCA1-FFLuc reporter, luminescence, 48 h; activation: at 46.1 µM (top of the series), scaled: vehicle 0%, 10 µM genistein 100% unless noted
Summary of the method: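 Quantitative HTS in MCF7 cells stably reporting BRCA1 expression via firefly luciferase. Compound treatment lasts 48 h at 37 °C in phenol-red free MEM. Activation is expressed relative to genistein at 10 microM and DMSO.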
Potency is read from the fitted curve at half-maximal effect; tags tell the direction and shape of the fitted curve.

Compound	activation	Potency
Cc1ccc(NC(=O)Cn2cc(S(=O)(=O)c3ccc(C)cc3)c(=O)c3cc4c(cc32)OCO4)cc1	inactive: -3.39%	–
CCOC(=O)C(C)Oc1cccc2c(=O)n(CC(=O)NCc3ccccc3)ccc12 (stereo not given)	inactive: -58.3%	–
O=C(N/N=C/c1ccco1)Nc1ccccc1	–	active: 6.31 µM
CCCC(=O)Nc1ccc(-c2nc3ncccc3o2)cc1	–	inconclusive: 1.58 µM [activator, full curve, poor fit]
CCOC(=O)c1cnn2c(C)cc(-c3ccc(F)cc3)nc12	–	active: 2.82 µM
COc1ccc(/C=C/c2nccc3ccccc23)cc1OC	–	inconclusive: 3.16 µM [activator, partial curve, poor fit]
COc1ccc(OCc2ccc(-c3nc4ccccc4c(=O)n3N)o2)cc1	–	inconclusive: 2.51 µM [activator, full curve, poor fit]
CCc1cccc(NC(=O)CN2C(=O)COc3ccc(S(=O)(=O)Nc4ccccc4)cc32)c1	inactive: -14.9%	–
CCNc1nc(NC(C)C)nc(SCCOC(=O)c2ccccc2)n1	inactive: 13.7%	–
Cc1cc(N/N=C/c2c(O)ccc3ccccc23)nc(-c2ccccc2O)n1	inactive: -84.7%	–
O=C(CSc1nnc(-c2ccccn2)o1)Nc1ccccc1C(F)(F)F	–	inconclusive: 8.91 µM [activator, partial curve, poor fit]
CC(=O)Nc1cccc(C(=O)N2CCN(S(=O)(=O)Cc3ccccc3)CC2)c1	inactive: 13%	–
COc1ccc(-c2nn(-c3ccccc3)cc2N)cc1	–	active: 3.16 µM
O=C(Nc1nccs1)c1ccc(-c2ccc([N+](=O)[O-])cc2)o1	–	active: 3.16 µM
CN(Cc1nccn1C)C(=O)c1ccc2nc(Cc3ccccc3F)oc2c1	–	active: 12.6 µM
O=C(Nc1ccn(Cc2ccc(Cl)cc2)n1)c1ccccc1	–	active: 7.94 µM
c1ccc(SCc2nc(-c3ccccn3)no2)cc1	–	active: 7.08 µM
O=C(O)c1ccc(-n2nncc2-c2ccccc2)cc1	inconclusive: 55.5% [activator]	–
Clc1cccc2sc(N3CCCC3)nc12	–	inconclusive: 12.6 µM [activator, partial curve, poor fit]
O=C(Nc1ccccc1F)c1ccc2sc([C@H]3C[C@H](O)[C@@H](CO)O3)nc2c1	–	inconclusive: 10 µM [activator, partial curve, poor fit]
Cc1cc(Cl)ccc1Nc1ncccc1C(N)=O	–	active: 4.47 µM
Cc1cc(C(=O)Nc2nc3c(s2)CCCC3)cs1	–	inconclusive: 3.16 µM [activator, partial curve, poor fit]
O=C(CC[C@H]1O[C@@H](n2cnc3c(NC(=O)c4ccccc4)ncnc32)[C@H](O)[C@@H]1O)NCc1nc2ccccc2[nH]1	inactive: 2.31%	–
O=C1c2cccc(OCc3ccc(F)cc3)c2CCN1Cc1ccc(F)cc1	inactive: -51.7%	–
CCN(CC)C(=O)c1cc(-c2ccc3c(c2)OCO3)on1	–	inconclusive: 0.631 µM [activator, full curve, poor fit]

Compound	activation	Potency
c1ccc2[nH]c(SCCN3CCOCC3)nc2c1	–	inconclusive: 15.8 µM [activator, partial curve, poor fit]
COc1ccc2ncn(-c3ccccc3)c2c1	inactive: 13.6%	–
COc1ccc(N2CCN(C(=O)CCCn3c(=S)[nH]c4cc5c(cc4c3=O)OCO5)CC2)cc1	inactive: -2.75% [at 1.84 µM, scaled: vehicle 0%, 10 µM genistein 100%]	–
COCC(=O)n1nc(-c2ccccc2)nc1NCc1cccs1	–	active: 10 µM
CC(C)CNS(=O)(=O)c1ccc(CCC(=O)N2CCN(Cc3ccc4c(c3)OCO4)CC2)cc1	inactive: -48.7%	–
C=CC[N+](C)(C)CCCNC(=O)/C=N/O	inactive: 6.47%	–
Cc1ccc(NC(=O)c2ccc3nccnc3c2)c(C)c1	–	inconclusive: 17.8 µM [activator, partial curve, poor fit]
O=[N+]([O-])c1ccc(/C=N/N2CCCCC2)cc1	–	active: 10 µM
O=C(Nc1ccc(-c2noc(COc3ccccc3Cl)n2)cc1)c1ccco1	–	inconclusive: 2.51 µM [activator, partial curve, poor fit]
COc1ccc(OC)c2sc(NC(=O)c3ccc(S(=O)(=O)N4CCCC4)cc3)nc12	inactive: 40.7%	–
O=C(CCNC(=O)c1ccccc1Cl)Nc1nc2ccc(F)cc2s1	–	inconclusive: 15.8 µM [activator, partial curve, poor fit]
O=C(/C=C/c1ccccc1)N1CCC(c2ccccc2)C1 (stereo not given)	–	inconclusive: 1.58 µM [activator, full curve, poor fit]
COc1ccc(N(C)S(=O)(=O)c2cccc(C(=O)Nc3nc(C)c(C(C)=O)s3)c2)cc1	inactive: -1.74%	–
COc1cc(SC)ccc1C(=O)NC1CCCCC1	–	inconclusive: 11.2 µM [activator, partial curve, poor fit]
O=C(Nc1ccc(C(F)(F)F)cc1)c1ccccc1	–	inconclusive: 35.5 µM [activator, single point]
COc1ccc(CN(C(=O)c2snc(C(N)=O)c2N)C(C(=O)NC2CCCC2)c2cc(OC)ccc2OC)cc1 (stereo not given)	inactive: -25.7%	–
COC(=O)c1ccc(CSc2nncn2C)cc1	–	active: 10 µM
Cn1cccc1/C=N/NC(=O)c1ccccn1	–	active: 10 µM
O=C(c1cc2c(ccc3ccccc32)o1)N1CCCCC1	–	inconclusive: 1 µM [activator, full curve, poor fit]
Cc1ccsc1/C=N\NC(=O)c1cc(C(C)(C)C)[nH]n1	–	active: 5.01 µM
OCC1CCCN(C(=S)NCCc2ccccc2)C1 (stereo not given)	–	inconclusive: 14.1 µM [activator, partial curve, poor fit]
COc1ccccc1OCCCOc1ccc([N+](=O)[O-])cc1Cl	–	inconclusive: 12.6 µM [activator, partial curve, poor fit]
COc1ccc(C2=NN(c3ccc(C(=O)O)cc3)C(c3ccc(OC)c(OC)c3)C2)cc1 (stereo not given)	inconclusive: 111% [activator]	–
Cc1ccc(NC(=O)c2sc3nc4c(c(-c5ccco5)c3c2N)CCC4)cc1	inactive: -17.2%	–
COc1ccc(/C=C2\SC(=O)N(CC(=O)NCCCn3ccnc3)C2=O)cc1	–	inconclusive: 12.6 µM [activator, single point]

Compound	activation	Potency
CC(C)(C)OC(=O)N1CCC(C(=O)N2CCCCCC2)CC1	inactive: 7.72%	–
O=[N+]([O-])c1cc(C(F)(F)F)ccc1NCCOc1ccccc1	–	inconclusive: 14.1 µM [activator, partial curve, poor fit]
Cc1cc(C(=O)OCC(=O)N2CCc3ccccc32)c(C)o1	–	inconclusive: 17.8 µM [activator, partial curve, poor fit]
CC[n+]1c(/C=C/c2ccc(OC)c(OC)c2)ccc2ccccc21	–	inconclusive: 12.6 µM [activator, partial curve, poor fit]
Cn1c(=O)oc2cc(S(=O)(=O)Nc3ccccc3O)ccc21	inactive: -0.561%	–
O=C(CCC1CCCCC1)Nc1cccc(C(=O)Nc2ccc(C(=O)O)cc2)c1	–	inconclusive: 1.58 µM [activator, full curve, poor fit]
COC(=O)Nc1nc2c(s1)CCCC2	–	inconclusive: 15.8 µM [activator, partial curve, poor fit]
CN1CCc2c(sc(NC(=O)C3COc4ccccc4O3)c2C(N)=O)C1 (stereo not given)	–	inconclusive: 15.8 µM [activator, partial curve, poor fit]
Cn1c(N)c(C(=O)COC(=O)C2CCCN2C(=O)c2cccs2)c(=O)n(C)c1=O (stereo not given)	inconclusive: 272% [activator]	–
CCOC(=O)c1ccc(NC(=S)Nc2ccc(C)cc2)cc1	–	active: 12.6 µM
CC1CCN(C(=O)c2ccc3ccccc3c2)CC1	–	active: 2.51 µM
CCc1ccc(OCC(=O)O/N=C(\N)c2ccncc2)cc1	–	inconclusive: 14.1 µM [activator, partial curve, poor fit]
CC(=O)NC(CC(=O)NCCN1C(=O)S/C(=C\c2ccccc2)C1=O)c1ccccc1 (stereo not given)	inactive: -4.08%	–
C=CCn1c(C)cc(C(=O)CSc2ccc(NC(C)=O)cc2)c1C	–	inconclusive: 1.12 µM [activator, full curve, poor fit]
Fc1cccc2sc(N3CCCCC3)nc12	–	active: 12.6 µM
Clc1cccc(Cl)c1Cn1ccc(C2CC2)n1	–	inconclusive: 11.2 µM [activator, partial curve, poor fit]
O=C(NC1CCCCCCC1)c1cccs1	–	inconclusive: 14.1 µM [activator, partial curve, poor fit]
CN1CCN(c2ccc(NC(=O)c3cccs3)cc2)CC1	–	inconclusive: 1.26 µM [activator, full curve, poor fit]
CCOc1ccc(-c2cc(C(=O)NN=C3CCN(C)CC3)[nH]n2)cc1	–	inconclusive: 0.631 µM [activator, full curve, poor fit]
Cc1ccc(NS(=O)(=O)c2ccc(C(=O)N3CCC3)cc2)cc1	inactive: -6.42%	–
c1ccc(C2=Nc3cccnc3C(c3ccccc3)=NN2)cc1	–	inconclusive: 11.2 µM [activator, single point]
COP(=O)(OC)c1nc(-c2cccc3ccccc23)oc1N1CCCCC1	inactive: -19.6%	–
Clc1ccc(OCc2cc(-c3ccccc3)no2)cc1Cl	–	active: 14.1 µM
O=C(Nc1ccccc1C(F)(F)F)NC1(C(=O)N2CCOCC2)CCCCC1	inactive: -36.6%	–
CCc1ccccc1NC(=O)C1CCN(S(=O)(=O)c2ccc3[nH]c(=O)ccc3c2)CC1	–	inconclusive: 3.16 µM [activator, partial curve, poor fit]
